The record followed here is paper PMC6919601, “Identification of Plasmodium dipeptidyl aminopeptidase allosteric inhibitors by high throughput screening” (PLoS ONE, 2019).

Among all 110,000 compounds or so, about 230 (0.21%) showed an effect of 50% or more. The list shows a part of the results.
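Note: 30 min substrate incubation versus DMSO and 10 µM JCP410 controls.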

For the experiment, the target named is DPAP1 (Plasmodium falciparum, UniProt Q8IIJ9). As to the kind of experiment: primary screen, percent inhibition; read by cleavage of a fluorogenic dipeptide substrate; higher = more effect of the substance. The arrangement: species or system P. falciparum D10 trophozoite lysates; single well.
Sequence of DPAP1 (Q8IIJ9 whole entry, looked up): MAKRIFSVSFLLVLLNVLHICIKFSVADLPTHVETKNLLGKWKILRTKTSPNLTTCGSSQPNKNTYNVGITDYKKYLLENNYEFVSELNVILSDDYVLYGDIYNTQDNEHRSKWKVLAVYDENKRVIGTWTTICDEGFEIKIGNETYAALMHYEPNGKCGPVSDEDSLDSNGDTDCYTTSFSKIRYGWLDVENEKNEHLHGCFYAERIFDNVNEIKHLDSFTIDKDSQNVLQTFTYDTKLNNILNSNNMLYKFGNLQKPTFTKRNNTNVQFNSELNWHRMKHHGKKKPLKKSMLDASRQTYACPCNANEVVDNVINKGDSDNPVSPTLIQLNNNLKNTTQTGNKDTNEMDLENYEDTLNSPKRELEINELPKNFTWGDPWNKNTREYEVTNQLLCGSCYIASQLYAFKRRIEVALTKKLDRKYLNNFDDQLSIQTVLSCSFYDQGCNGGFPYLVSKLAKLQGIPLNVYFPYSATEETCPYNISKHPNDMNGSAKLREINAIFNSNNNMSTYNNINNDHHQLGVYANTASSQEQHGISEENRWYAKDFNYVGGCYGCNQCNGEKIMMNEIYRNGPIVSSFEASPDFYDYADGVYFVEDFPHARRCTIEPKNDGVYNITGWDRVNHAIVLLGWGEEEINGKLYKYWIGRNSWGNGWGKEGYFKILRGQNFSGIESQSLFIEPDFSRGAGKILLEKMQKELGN
For `O=C(Cn1cnc2onc(-c3ccc(F)cc3)c2c1=O)NCC1CCCO1` (stereo not drawn), the “% Inhibition @ 10 uM” value is recorded as -4.36%.

For the molecule `Cc1nc2c3cccnc3nn2c(C)c1CCC(=O)N1CCN(Cc2ccc3c(c2)OCO3)CC1`, the “% Inhibition @ 10 uM” value was found to be 3.2%.

For `Cc1ccc(OCCCCc2c(C)n[nH]c2C)cc1`, the “% Inhibition @ 10 uM” value is -2.12%.

In the case of `Cc1ccc(NC(=O)C2CCN(S(=O)(=O)c3ccc4nc(O)ccc4c3)CC2)nc1`, the “% Inhibition @ 10 uM” value is listed as -4.68%.

`O=C(NCCCN1CCOCC1)c1ccc(CN2C(=O)CCn3nccc32)cc1`: the “% Inhibition @ 10 uM” value is 1.72%.

For the molecule `N#Cc1sc2nc(-c3ccc4c(c3)OCO4)ccc2c1N`, the “% Inhibition @ 10 uM” value is given as -2.45%.

On to `CC1CC(C)CN(c2nnc(N)s2)C1` (stereo not drawn), for which the “% Inhibition @ 10 uM” value is -1.99%.

With `O=C(CCn1c(=O)c2cccn2c2cccnc21)NCc1ccccn1`, the “% Inhibition @ 10 uM” value is -2.44%.

Turning to `Cc1ccc(C(=O)NC(C)C2CC3CCC2C3)s1` (stereo not drawn), the “% Inhibition @ 10 uM” value is on record as 1.64%.

Take `Cc1[nH]c2ccc(C(=O)N3CCCCCC3)cc2c1C`: the “% Inhibition @ 10 uM” value is 0.0489%.

In the case of `COc1ccc(S(=O)(=O)NCC2CCCO2)cc1-c1nnc2c3ccccc3c(C)nn12` (stereo not drawn), the “% Inhibition @ 10 uM” value is recorded as -4.78%.

`COc1cccc(C(=O)N2CCN(C(=O)c3cc(OC)c(OC)c(OC)c3)CC2)c1`: the “% Inhibition @ 10 uM” value is reported as -7.93%.

As for `Oc1c2c(nc3nncn13)-c1ccccc1CC21CCCCC1`, the “% Inhibition @ 10 uM” value was -3.77%.

With `CC(C)(C)NC(=O)c1ccc(COc2ccc(Cl)cc2Cl)o1`, the “% Inhibition @ 10 uM” value is listed as 5.3%.

For the molecule `CCc1ccc(C2C(C#N)=C(N)OC3=C2C(=O)CC(C)(C)C3)s1` (stereo not drawn), the “% Inhibition @ 10 uM” value was -0.941%.

With `Cc1cc(-c2ccc(C)c(S(=O)(=O)NCC3CCCO3)c2)on1` (stereo not drawn), the “% Inhibition @ 10 uM” value was -0.257%.

For `COc1ccc(/C=C2\SC(N3CCCC3)=NC2=O)cc1`, the “% Inhibition @ 10 uM” value is given as -2.8%.

As for `COCc1cc(C)c2c(N)c(C#N)sc2n1`, the “% Inhibition @ 10 uM” value amounted to 2.8%.

Take `CCOC(=O)Nc1sc(NS(=O)(=O)c2ccc(C)cc2)nc1C`: the “% Inhibition @ 10 uM” value is recorded as -3.75%.

Turning to `Cc1cc2oc(=O)cc(O)c2c(=O)o1`, the “% Inhibition @ 10 uM” value was 0.162%.

Consider `Cc1cc(Cl)ccc1N(CC(=O)Nc1ccc(F)cc1)S(C)(=O)=O`, for which the “% Inhibition @ 10 uM” value is -2.86%.

Turning to `COc1ccc(Nc2c(C#N)c(C)nn2-c2ccccc2)cc1`, the “% Inhibition @ 10 uM” value is listed as -2.2%.

Consider `O=C(Nc1ccc(Cl)cc1)Nc1ccccc1OC(F)F`, for which the “% Inhibition @ 10 uM” value was 3.42%.

On to `CC(C)C(NC(=O)C(NC(=O)C1O[C@@H]2OC(C)(C)O[C@@H]2[C@H]2OC(C)(C)O[C@@H]12)C(C)C)C(=O)O` (stereo partly drawn), for which the “% Inhibition @ 10 uM” value worked out at 0.193%.

Take `Nc1nc(N)nc(-c2cccc(-c3nc(N)nc(N)n3)c2)n1`: the “% Inhibition @ 10 uM” value was -9.59%.

In the case of `CC1=C(C(=O)Nc2cc(C)ccn2)C(c2ccccc2C)C2=C(O)CC(C)(C)CC2=N1` (stereo not drawn), the “% Inhibition @ 10 uM” value is listed as 3.05%.

Consider `CC(=O)Nc1ccc(C2Nc3ccc(C)cc3-c3cc(C)nn32)cc1` (stereo not drawn), for which the “% Inhibition @ 10 uM” value was -0.116%.

For `C=CC1CN2CCC1CC2C(=O)c1ccnc2ccccc12` (stereo not drawn), the “% Inhibition @ 10 uM” value is listed as -6.39%.

For the molecule `O=C(O)CCCNS(=O)(=O)c1ccc(Cl)cc1`, the “% Inhibition @ 10 uM” value is given as -6.29%.

On to `COc1cccc(Cn2nnc3c(O)nc(C4CCN(C(=O)c5ccccc5)CC4)nc32)c1`, for which the “% Inhibition @ 10 uM” value is reported as 0.347%.

With `Cc1ccccc1OCC(=O)NC1CCCCC1NC(=O)COc1ccccc1C` (stereo not drawn), the “% Inhibition @ 10 uM” value stood at 2.42%.

For `CCCNCC(=O)NC12CC3CC(CC(C3)C1)C2`, the “% Inhibition @ 10 uM” value is -2.48%.

Regarding `CCCNC(=O)CCCN1C(=O)CSc2nc(C)cc(C)c21`, the “% Inhibition @ 10 uM” value is given as -2.37%.

Consider `COc1ccc(-c2sc(C(=O)O)cc2CC(=O)O)cc1`, for which the “% Inhibition @ 10 uM” value came to 3.32%.

For `O=C(CN1CCN(c2ccc([N+](=O)[O-])cc2)CC1)N1CCOCC1`, the “% Inhibition @ 10 uM” value was -4.8%.

On to `CCN(CC)CC(C)CNC(=O)CSc1nc2nc(C)c(Cc3ccc(C)cc3)c(C)n2n1` (stereo not drawn), for which the “% Inhibition @ 10 uM” value worked out at 2.17%.

Turning to `CCCCCc1ccc(-c2ccc(C(=N)NO)cc2)cc1`, the “% Inhibition @ 10 uM” value came to 7.59%.

Turning to `COc1ccc(CNC(=O)C2CCC(Cn3c(=O)[nH]c4ccsc4c3=O)CC2)cc1` (stereo not drawn), the “% Inhibition @ 10 uM” value is listed as -3.27%.

In the case of `CCOC(=O)N1CCN(C(=O)CCCCn2c(=S)[nH]c3c([nH]c4ccc(OC)cc43)c2=O)CC1`, the “% Inhibition @ 10 uM” value amounted to 2.74%.

As for `O=c1sc2ccccc2n1CN1CCCC1`, the “% Inhibition @ 10 uM” value is listed as -4.91%.

For the molecule `Cc1cnc(CNC(=O)Nc2ccc(C(=O)NC(CC(C)C)C(=O)NCC#N)cc2)cn1` (stereo not drawn), the “% Inhibition @ 10 uM” value is -14.9%.

Regarding `Cc1ccccc1CN(CCCN(C)C)CCCN(C)C`, the “% Inhibition @ 10 uM” value worked out at 1.08%.

Consider `CC(=O)Nc1ccc(OCC(O)CN2CCN(c3cccc(C(F)(F)F)c3)CC2)cc1` (stereo not drawn), for which the “% Inhibition @ 10 uM” value was -0.884%.

Turning to `Cc1cc2n(n1)SC(Nc1cccc3ccccc13)N2` (stereo not drawn), the “% Inhibition @ 10 uM” value was determined as 0.0451%.

Turning to `O=C1CC(N2CCN(c3ccccc3Cl)CC2)C(=O)N1c1ccccc1` (stereo not drawn), the “% Inhibition @ 10 uM” value was 3.27%.

With `COc1ccc(Br)cc1/C=C1\C(=O)NC(=O)N(c2ccc(C)cc2)C1=O`, the “% Inhibition @ 10 uM” value was -2.18%.

As for `COCc1cc(C)nc2sc3c(c12)NC(C)n1c-3nc2ccccc21` (stereo not drawn), the “% Inhibition @ 10 uM” value amounted to 2.37%.

In the case of `CCOc1ccc(OCCSc2nc3ccccc3s2)cc1`, the “% Inhibition @ 10 uM” value is -3.92%.

For `Cc1cc(C(=O)C(=O)NCc2ccccc2)c(C)n1-c1cccc(Cl)c1`, the “% Inhibition @ 10 uM” value is -4.68%.

As to `COc1ccc(-c2c(-c3ccc(O)cc3O)n[nH]c2C)cc1OC`, the “% Inhibition @ 10 uM” value came out at 2.31%.

For the molecule `CC1CCC(NS(=O)(=O)c2ccc(-c3cc(C(F)(F)F)no3)s2)CC1` (stereo not drawn), the “% Inhibition @ 10 uM” value came to 8.44%.
